Experimental data published in PubChem BioAssay AID1460 (National Center for Advancing Translational Sciences (NCATS), 2008).
“And” between values parts separate entries of the source, which are not always exact repeats. Equal values may be shown once. Out of some 270,000 compounds screened, about 5,800 (2.1%) were called active. Inconclusive results, whose numbers are uncertain, are shown with a selection of clear calls. Calls follow the shape of the dose curve; as a rule, active = well fitted inhibition curve with a large enough effect; inconclusive = small, poorly fitted or top-dose-only effect; inactive = flat fitted curve, though single readings scatter. Potencies beside an inconclusive call are fits to weak or partial responses and may not hold up.

Molecular target: Microtubule-associated protein tau (Homo sapiens) (UniProt P10636)
Sequence of UniProt P10636 (P10636 whole entry, looked up): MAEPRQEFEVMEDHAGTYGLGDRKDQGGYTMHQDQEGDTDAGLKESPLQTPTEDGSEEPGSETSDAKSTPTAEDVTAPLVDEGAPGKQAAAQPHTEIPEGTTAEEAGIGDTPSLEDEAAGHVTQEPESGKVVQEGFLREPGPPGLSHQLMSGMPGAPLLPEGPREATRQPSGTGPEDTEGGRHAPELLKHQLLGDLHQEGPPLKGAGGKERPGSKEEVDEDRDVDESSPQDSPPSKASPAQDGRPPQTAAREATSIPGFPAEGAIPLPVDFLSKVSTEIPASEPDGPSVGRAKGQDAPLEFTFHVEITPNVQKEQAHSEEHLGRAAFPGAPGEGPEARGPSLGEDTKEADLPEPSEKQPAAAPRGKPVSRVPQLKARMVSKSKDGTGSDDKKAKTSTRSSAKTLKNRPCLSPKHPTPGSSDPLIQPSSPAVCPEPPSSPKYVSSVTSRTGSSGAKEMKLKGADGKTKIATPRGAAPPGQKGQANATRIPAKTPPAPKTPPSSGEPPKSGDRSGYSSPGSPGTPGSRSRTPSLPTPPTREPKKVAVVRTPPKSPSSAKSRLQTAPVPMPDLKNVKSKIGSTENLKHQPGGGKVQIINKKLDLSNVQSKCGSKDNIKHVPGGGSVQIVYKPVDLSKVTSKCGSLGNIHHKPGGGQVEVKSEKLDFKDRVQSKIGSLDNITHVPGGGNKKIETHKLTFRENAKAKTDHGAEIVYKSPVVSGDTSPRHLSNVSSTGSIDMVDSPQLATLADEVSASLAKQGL
Test: qHTS for Inhibitors of Tau Fibril Formation, Thioflavin T Binding; also: nearly all actives have a fitted effect of over 55% in size
Settings: recombinant tau K18 P301L (four-repeat tau fragment), heparin-induced fibrillization, ThT fluorescence; series mostly up to 57.4 µM; activity, negative = inhibition: at the top concentration
Method in brief: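 Aggregation was driven by heparin (20 uM final) acting on recombinant tau […] bearing P301L in 100 mM sodium acetate pH 7; fibrils were detected with Thioflavin T.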
% is scaled to controls: 0 for no effect and ±100 for the full control effect; potency is read from the fitted curve at half-maximal effect; tags tell the direction and shape of the fitted curve.

Question: How did the Potency turn out when `COc1ccc(CNc2oc(COc3cccc(C)c3)nc2C#N)cc1` was run?
Answer: inconclusive: 0.0631 µM [inhibitor, full curve, poor fit]

Question: For `Cc1ccsc1/C=N/N1CCN(c2ccccc2)CC1`, which Potency is on record?
Answer: inconclusive: 5.62 µM [inhibitor, partial curve]

Question: `O=C(Nc1ccc(NC(=O)c2ccc(Br)cc2)c(Cl)c1)c1ccc(Br)cc1` was tested. Which Potency did it give?
Answer: inconclusive: 7.08 µM [inhibitor, partial curve]

Question: Which “activity, negative = inhibition” value does the source give for `Cn1cc(S(=O)(=O)N2CCCC2)cc1C(=O)Nc1ccc(C(F)(F)F)cc1` here?
Answer: inactive: -3.22%

Question: Which “activity, negative = inhibition” value does the source give for `CCOC(=O)C1=C(C)NC(=S)NC1/C=C/c1ccccc1` (stereo not given) here?
Answer: inactive: 12.4%

Question: Which Potency does the source give for `CC(C)(C)c1cc[n+](C2=C([O-])c3ccccc3C(=O)/C2=N\S(=O)(=O)c2ccccc2)cc1` here?
Answer: active: 15.8 µM

Question: For `Cn1c(=O)c(=O)n(C)c2cc(N3CCCC3)c(NC(=O)c3ccc(C(C)(C)C)cc3)cc21`, which “activity, negative = inhibition” value is on record?
Answer: inactive: -16.7%

Question: `COc1cccc(CNC(=O)CN(c2ccc(C(C)C)cc2)S(=O)(=O)c2c(C)n[nH]c2C)c1` was tested. Which “activity, negative = inhibition” value did it give?
Answer: inactive: -12.3%

Question: For `O=C(NC(=S)Nc1ccc(S(=O)(=O)Nc2nccs2)cc1)c1ccccc1F`, which “activity, negative = inhibition” value is on record?
Answer: inactive: -5.34%

Question: Which “activity, negative = inhibition” value does the source give for `CC(=O)Nc1cccc(NC(=O)C2(c3cccs3)CCOCC2)c1` here?
Answer: inactive: -1.47%

Question: For `Cc1ccc(SCc2nc(-c3ccc(C(=O)NCc4ccccc4Cl)cc3)oc2C)cc1`, which “activity, negative = inhibition” value is on record?
Answer: inactive: -2.27%

Question: Which “activity, negative = inhibition” value does the source give for `CCCn1c(NC(=O)c2ccc(Cl)c(S(=O)(=O)N3CCCC3)c2)nc2ccccc21` here?
Answer: inactive: -7.57%

Question: How did the “activity, negative = inhibition” value turn out when `CCOc1ccc(-n2c(N)c(C(=O)N3CCN(C)CC3)sc2=S)cc1` was run?
Answer: inactive: -1.17%

Question: With `Cc1cc2cc(CNC(=O)Nc3cccc(Cl)c3)ccc2n1C` as the compound, how does the Potency read?
Answer: inconclusive: 25.1 µM [inhibitor, single point]

Question: Which Potency does the source give for `CCOC(=O)c1c(N2C(=O)Nc3cc(Cl)c(Cl)cc3N2O)sc2c1CCCCC2` here?
Answer: inconclusive: 20 µM [inhibitor, partial curve]

Question: How did the “activity, negative = inhibition” value turn out when `COc1ccc(C)cc1NC(=O)C1CCCN(S(=O)(=O)c2ccc3c(c2)oc(=O)n3C)C1` (stereo not given) was run?
Answer: inactive: -0.886%

Question: Which Potency does the source give for `Cc1ccc(S(=O)(=O)c2cc3c(=O)n4ccccc4nc3n(Cc3ccco3)c2=N)cc1C` here?
Answer: inconclusive: 8.91 µM [inhibitor, partial curve]

Question: With `C/C(=N\NC(=O)c1cc2c(s1)CCC(C)C2)c1ccncc1` (stereo not given) as the compound, how does the Potency read?
Answer: inconclusive: 31.6 µM [inhibitor, single point]

Question: How did the “activity, negative = inhibition” value turn out when `COC(=O)[C@@]1(Cc2ccccc2)[C@H]2c3cc(C(=O)N(C)C)n(C[C@H](O)CO)c3C[C@H]2CN1C(=O)c1ccccc1` was run?
Answer: inactive: -2.94%

Question: With `CC(C)(C)c1ccc(S(=O)(=O)N2CCCCC2)cc1` as the compound, how does the “activity, negative = inhibition” value read?
Answer: inactive: 1.52%

Question: For `CCOc1ccc(S(=O)(=O)n2cnc3cc(C)c(C)cc32)cc1`, which “activity, negative = inhibition” value is on record?
Answer: inactive: -1.89%

Question: `O=C(CCSCCC(=O)NCc1ccco1)NCc1ccco1` was tested. Which Potency did it give?
Answer: active: 14.1 µM

Question: For `Cc1cc(-c2csc(NC(=O)c3cc4ccccc4o3)n2)c(C)n1C`, which Potency is on record?
Answer: inconclusive: 7.08 µM [inhibitor, partial curve]

Question: How did the Potency turn out when `COc1cc(Cl)c(C)cc1Nc1c2c(nc3ccccc13)CCC2` was run?
Answer: inconclusive: 35.5 µM [inhibitor, partial curve]

Question: How did the Potency turn out when `Cc1cc(C)nc(Sc2ccc(/C=C(\C#N)C(=O)Nc3ccccc3)o2)n1` was run?
Answer: inconclusive: 39.8 µM [inhibitor, single point]

Question: `CCOc1ccccc1CNC(=O)CN1C(=O)CCn2nc(-c3cn(C)c4ccccc34)cc21` was tested. Which Potency did it give?
Answer: inconclusive: 28.2 µM [inhibitor, single point]

Question: With `COc1ccc(CNC(=O)c2ccc3c(c2)NC(=O)C(CS(=O)(=O)Cc2ccccc2Cl)N3)cc1` (stereo not given) as the compound, how does the Potency read?
Answer: inconclusive: 25.1 µM [inhibitor, partial curve]

Question: Which Potency does the source give for `Cc1[nH]c2ccccc2c1/C=N/NS(=O)(=O)c1ccccc1` here?
Answer: inconclusive: 17.8 µM [inhibitor, partial curve]

Question: For `CCOC(=O)C1=C(O)/C(=C/c2cccc(OC)c2O)N=C1C`, which Potency is on record?
Answer: inconclusive: 15.8 µM [inhibitor, partial curve]

Question: Which “activity, negative = inhibition” value does the source give for `COC(=O)Cc1ccc(NC(=S)NCc2ccc(OC)cc2)cc1` here?
Answer: inactive: -9.58%

Question: For `O=C(CN1CCOCC1)NNC(=S)Nc1ccc(Cl)cc1`, which “activity, negative = inhibition” value is on record?
Answer: inactive: 0.531%

Question: `O=C(C1=C[C@@H](c2ccc(Br)cc2)C[C@@H](OCCCCO)O1)N1CCN(Cc2ccccc2)CC1` was tested. Which Potency did it give?
Answer: inconclusive: 1 µM [inhibitor, single point]

Question: With `O=C(COc1ccc2oc(-c3ccccc3)cc(=O)c2c1)Nc1ccccc1` as the compound, how does the Potency read?
Answer: inconclusive: 0.794 µM [inhibitor, full curve]

Question: `COc1cc(OC)cc(C(=O)Nc2ccc3oc(-c4ccc(Cl)cc4)nc3c2)c1` was tested. Which Potency did it give?
Answer: inconclusive: 0.447 µM [inhibitor, full curve]

Question: For `CC(=O)c1ccc(OCc2ccccc2)c(C)c1O`, which Potency is on record?
Answer: inconclusive: 1.12 µM [inhibitor, full curve] and inconclusive: 447 nM [inhibitor, full curve]

Question: For `COc1ccc(Cl)cc1Nc1nc(-c2sc(NC(=O)C(C)(C)C)nc2C)cs1`, which Potency is on record?
Answer: inconclusive: 20 µM [inhibitor, partial curve]

Question: For `CCCSc1cc(NCCOC(C)=O)c([N+](=O)[O-])c2nonc12`, which Potency is on record?
Answer: inconclusive: 28.2 µM [inhibitor, partial curve]

Question: How did the “activity, negative = inhibition” value turn out when `Oc1c(CN2CCN(c3ccccc3)CC2)cc(Br)c2cccnc12` was run?
Answer: inactive: -13.6%

Question: How did the “activity, negative = inhibition” value turn out when `Cc1csc(SCC(=O)NC(C)c2ccccc2)n1` (stereo not given) was run?
Answer: inactive: -11.1%

Question: For `Cc1ccc(NC(=O)CSc2nc(-c3cccs3)cc(C(F)(F)F)n2)cc1C`, which Potency is on record?
Answer: inconclusive: 7.08 µM [activator, single point]

Question: `Cc1cccc(OCC(=O)NNc2c3ccccc3nc3ccccc23)c1` was tested. Which Potency did it give?
Answer: inconclusive: 5.01 µM [inhibitor, partial curve]

Question: For `CCN(CC)c1ccc(/C=N/NC(=O)Cc2cccs2)c(O)c1`, which Potency is on record?
Answer: inconclusive: 11.2 µM [inhibitor, partial curve]

Question: With `O=[N+]([O-])c1ccc(N2CCNCC2)cc1NCc1cccnc1` as the compound, how does the Potency read?
Answer: inconclusive: 14.1 µM [inhibitor, partial curve]

Question: `Cc1nnc(SCc2ccccc2Cl)c2cc3occc3n12` was tested. Which Potency did it give?
Answer: inconclusive: 25.1 µM [inhibitor, partial curve]

Question: For `Cc1cccc2sc(N(Cc3cccnc3)C(=O)Cc3ccccc3)nc12`, which Potency is on record?
Answer: inconclusive: 39.8 µM [inhibitor, single point]

Question: For `CC(C)Oc1cccc(C(=O)Nc2ccc(-c3nc4cc(Cl)cc(Cl)c4o3)cc2)c1`, which Potency is on record?
Answer: inconclusive: 0.562 µM [inhibitor, full curve, poor fit]

Question: Which “activity, negative = inhibition” value does the source give for `CCC(c1nnnn1CCc1ccccc1)N1CCN(C(=O)c2ccco2)CC1` (stereo not given) here?
Answer: inactive: -5.99%

Question: How did the Potency turn out when `O=C(COc1ccccc1[N+](=O)[O-])N/N=C/c1cccc(OC(=O)c2ccc3c(c2)OCO3)c1` was run?
Answer: inconclusive: 3.55 µM [inhibitor, partial curve]

Question: For `O=C(NCc1ccc2c(c1)OCO2)C1CCC(=O)N1C1CCCCC1` (stereo not given), which “activity, negative = inhibition” value is on record?
Answer: inactive: -14.8%

Question: With `CCOC(=O)C1(C)NC(c2ccco2)C2C(=O)N(CC)C(=O)C21` (stereo not given) as the compound, how does the “activity, negative = inhibition” value read?
Answer: inactive: -2.21%

Question: `CCCCCn1c(=N)c(S(=O)(=O)c2ccccc2)cc2c(=O)n3cccc(C)c3nc21` was tested. Which “activity, negative = inhibition” value did it give?
Answer: inactive: 1.6%

Question: Which Potency does the source give for `CC1=NN(c2ccc(C)cc2)C(=O)/C1=C\C=C\c1ccccc1` here?
Answer: active: 7.08 µM

Question: Which Potency does the source give for `Cc1ccccc1C1C(C#N)=C2N=C(N)c3c(sc4c3CCCCC4)N2C2=C1C(=O)CC(C)(C)C2` (stereo not given) here?
Answer: inconclusive: 20 µM [inhibitor, partial curve]

Question: For `CCCCCCc1cc2cc(C(N)=O)c(=N)oc2cc1O`, which Potency is on record?
Answer: inconclusive: 1 µM [activator, full curve, poor fit]

Question: How did the Potency turn out when `CCCC[C@@H]1C[C@H]1C(NC(=O)c1cccnc1)c1ccc(Cl)cc1` (stereo not given in full) was run?
Answer: inconclusive: 31.6 µM [inhibitor, single point]

Question: `CCOC(=O)c1c(NC(=O)c2ccccc2Br)sc2c1CCc1ccccc1-2` was tested. Which Potency did it give?
Answer: active: 28.2 µM

Question: With `COc1ccc2c(CNCc3cccs3)c(C(=O)O)n(Cc3ccc(F)cc3Cl)c2c1` as the compound, how does the “activity, negative = inhibition” value read?
Answer: inactive: -11.7%

Question: How did the “activity, negative = inhibition” value turn out when `CCOC(=O)c1cnc(SC2CC(=O)N(c3ccccc3)C2=O)nc1N` (stereo not given) was run?
Answer: inactive: -18.7%

Question: `CCCCNS(=O)(=O)c1ccc2nc(SCC(=O)Nc3sccc3C#N)[nH]c2c1` was tested. Which “activity, negative = inhibition” value did it give?
Answer: inactive: -15.4%

Question: For `Cc1ccc(OCCCN2C(=O)C(=O)c3cccc(C)c32)cc1`, which Potency is on record?
Answer: inconclusive: 12.6 µM [inhibitor, partial curve]

Question: Which Potency does the source give for `CC(=O)Nc1ccc(/C=N/Nc2ccc(C(=O)c3c(C)cc4ccccn34)cc2[N+](=O)[O-])cc1` here?
Answer: inconclusive: 8.91 µM [inhibitor, partial curve]

Question: `CCc1ccc(/C([O-])=C(/C(=S)NCCN2CCOCC2)[n+]2ccccc2)cc1` was tested. Which Potency did it give?
Answer: inconclusive: 20 µM [inhibitor, single point]

Question: For `COc1ccc(-c2nc(C)c(CCNC(=O)c3cc(OC)c(OC)c(OC)c3)s2)cc1OC`, which Potency is on record?
Answer: inconclusive: 12.6 µM [inhibitor, partial curve]

Question: How did the Potency turn out when `COc1ccc(OC)c2sc(N(Cc3cccnc3)C(=O)c3ccc(C(C)=O)cc3)nc12` was run?
Answer: inconclusive: 11.2 µM [inhibitor, partial curve]

Question: With `COC(=O)C1=C(C)N=c2s/c(=C/c3cccs3)c(=O)n2C1c1ccc(F)cc1` (stereo not given) as the compound, how does the Potency read?
Answer: inconclusive: 7.08 µM [inhibitor, partial curve]

Question: Which “activity, negative = inhibition” value does the source give for `CCCCNC(=O)CNC(=S)N(Cc1ccccc1F)C1CCCCC1` here?
Answer: inactive: -7.54%

Question: For `COc1cccc(C(c2c(O)cc(C)n(Cc3ccco3)c2=O)N2CCC(C)CC2)c1` (stereo not given), which Potency is on record?
Answer: inconclusive: 28.2 µM [inhibitor, single point]

Question: With `CN(CC(=O)O)Cc1nc2ccccc2[nH]1` as the compound, how does the “activity, negative = inhibition” value read?
Answer: inactive: -12%

Question: How did the Potency turn out when `Cc1nnc(SCC(=O)NCc2ccc(N(C)C)cc2)c2nn(-c3ccccc3)c(C)c12` was run?
Answer: inconclusive: 35.5 µM [inhibitor, single point]

Question: With `CN1CCc2c(sc3ncn4nc(-c5ccccc5O)nc4c23)C1` as the compound, how does the Potency read?
Answer: active: 28.2 µM
